Test results from patent publication US20160017024A1 (Five Prime, published 2016).

T1: Human FAM150A (human, UniProt Q6UXT8 28-129)
T1 construct: Expressed in HEK 293 6E cells (or HEK293T supernatant) and secreted
T1 sequence: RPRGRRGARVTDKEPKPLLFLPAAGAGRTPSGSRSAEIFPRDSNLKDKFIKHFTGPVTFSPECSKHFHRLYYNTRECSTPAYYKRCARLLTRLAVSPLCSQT


Legend:
Human FAM150A [1] = molecular target: T1, Human FAM150A; test: SPR (Biacore T100), ECD-Fc captured on Protein A CM4 chip, FAM150A as analyte; 1:1 binding model
Method: The kₐ, kd, and KD for binding of human FAM150A to human LTK ECD-Fc (SEQ ID NO: 23) and mouse LTK ECD-Fc (SEQ ID NO: 25) was determined as follows. Binding kinetics of FAM150A to human and mouse LTK ECD-Fc fusion proteins was determined using Biacore T100 SPR (GE Healthcare Life Sciences, Piscataway, N.J.). LTK ECD-Fc fusions were captured on a CM4 sensor chip immobilized with Protein A (Thermo Scientific, Rockford, Ill.). HBS-P (GE Healthcare Life Sciences, Piscataway, N.J.) was used as the running and dilution buffer. Capture levels of the ECD-Fc fusions were adjusted to approximately 300-500RU so that binding values would be greater than the levels of non-specific binding to the reference flow cell. FAM150A was injected at […] (100 nM, 33.3 nM, 11.1 nM, 3.7 nM, 1.2 nM, 0.41 nM, 0.13 nM, 0.046 nM and 0 nM) for 120 seconds. The association constant, dissociation constant, and affinity of FAM150A for LTK Fc-ECD fusions was calculated using the Biacore T100 Evaluation software package using the 1:1 binding model.

Human FAM150A [2] = molecular target: T1, Human FAM150A; test: SPR (Biacore T100), ECD-Fc captured on anti-human IgG CM4 chip, FAM150A as analyte; 1:1 binding model
Method: (§1) Binding kinetics of FAM150A and FAM150B to LTK ECD-Fc and ALK ECD Fc fusion proteins was determined using Biacore T100 surface plasmon resonance (SPR) (GE Healthcare Life Sciences, Piscataway, N.J.). LTK ECD-Fc and ALK ECD-Fc (and a control unrelated protein-Fc fusion) were captured on a CM4 sensor chip immobilized with anti-human IgG antibody using the Human Antibody Capture Kit (GE Healthcare Life Sciences, Piscataway, N.J.). 10 mM HEPES buffered saline, pH 7.4, 150 mM NaCl, 0.005% Tween-20 (HBS-P, GE Healthcare Life Sciences, Piscataway, N.J.) was used as the running and dilution buffer. Capture levels of the ECD-Fc fusions were adjusted to approximately 300-500RU so that binding values would be greater than the levels of non-specific binding to the reference flow cell. FAM150A and FAM150B were injected at eight concentrations (300 nM, 100 nM, 33.3 nM, 11.1 nM, 3.7 nM, 1. 2 nM, 0.41 nM, 0.13 nM and 0 nM) for 90 seconds or 180 seconds. The short and long association method was used to increase the accuracy of the binding kinetics.
(§2) The association constant, dissociation constant, and affinity for FAM150A for LTK ECD-Fc and ALK ECD-Fc fusions was calculated using the Biacore T100 Evaluation software package using standard double referencing technique and the 1:1 binding model or steady state affinity model. The affinities of FAM150B for LTK ECD-Fc and ALK ECD-Fc could not be calculated in this assay due to high non-specific binding.

Human FAM150A [3] = molecular target: T1, Human FAM150A; test: SPR (Biacore T100), ECD-Fc captured on anti-human IgG CM4 chip, FAM150A as analyte; 1:1 or steady state affinity model
Method: as §1, with “The short and long association method was used to increase the accuracy of the binding kinetics.” left out
as §2

Kd (Human FAM150A [1]) [pM] | koff (Human FAM150A [1]) [s⁻¹] | kon (Human FAM150A [1]) [M⁻¹ s⁻¹] | Kd (Human FAM150A [2]) [pM] | koff (Human FAM150A [2]) [s⁻¹] | kon (Human FAM150A [2]) [M⁻¹ s⁻¹] | Kd (Human FAM150A [3]) [pM] | Binder
950 | 0.00799 | 8.45e+06 |  |  |  |  | Mouse LTK ECD-Fc (Fc fusion, also called mouse LTK ECD-Fc (human Fc)) ILCSNSEFQTPFLTPSLLPVLVLNSQEQKVTPTPSKLEPASLPNPLGTRGPWVFNTCGASGRSGPTQTQCDGAYTGSSVMVTVGAAGPLKGVQLWRVPDTGQYLISAYGAAGGKGAQNHLSRAHGIFLSAVFFLRRGEPVYILVGQQGQDACPGGSPESQLVCLGESGEHATTYGTERIPGWRRWAGGGGGGGGATSIFRLRAGEPEPLLVAAGGGGRSYRRRPDRGRTQAVPERLETRAAAPGSGGRGGAAGGGSGWTSRAHSPQAGRSPREGAEGGEGCAEAWAALRWAAAGGFGGGGGACAAGGGGGGYRGGDTSESDLLWADGEDGTSFVHPSGELYLQPLAVTEGHGEVEIRKHPNCSHCPFKDCQWQAELWTAECTCPEGTELAVDNVTCMDLPTTASPGS[no letters for human IgG1 Fc with changes]
< 28 | 0.000278 | > 1e+07 | < 40 | 0.000398 | > 1e+07 |  | Human LTK extracellular domain (ECD)-Fc (Fc fusion, Expressed in CHO-3E7 cells; also called LTK ECD-Fc; human LTK-Fc) ILCSSPGSQETFLRSSPLPLASPSPRDPKVSAPPSILEPASPLNSPGTEGSWLFSTCGASGRHGPTQTQCDGAYAGTSVVVTVGAAGQLRGVQLWRVPGPGQYLISAYGAAGGKGAKNHLSRAHGVFVSAIFSLGLGESLYILVGQQGEDACPGGSPESQLVCLGESRAVEEHAAMDGSEGVPGSRRWAGGGGGGGGATYVFRVRAGELEPLLVAAGGGGRAYLRPRDRGRTQASPEKLENRSEAPGSGGRGGAAGGGGGWTSRAPSPQAGRSLQEGAEGGQGCSEAWATLGWAAAGGFGGGGGACTAGGGGGGYRGGDASETDNLWADGEDGVSFIHPSSELFLQPLAVTENHGEVEIRRHLNCSHCPLRDCQWQAELQLAECLCPEGMELAVDNVTCMDLHKPPGPLGS[no letters for human IgG1 Fc with changes]
 |  |  |  |  |  | 280000 | Human ALK ECD-Fc (Fc fusion, Expressed in CHO-3E7 cells; also called human ALK-Fc) VGSGMGTGQRAGSPAAGSPLQPREPLSYSRLQRKSLAVDFVVPSLFRVYARDLLLPPSSSELKAGRPEARGSLALDCAPLLRLLGPAPGVSWTAGSPAPAEARTLSRVLKGGSVRKLRRAKQLVLELGEEAILEGCVGPPGEAAVGLLQFNLSELFSWWIRQGEGRLRIRLMPEKKASEVGREGRLSAAIRASQPRLLFQIFGTGHSSLESPTNMPSPSPDYFTWNLTWIMKDSFPFLSHRSRYGLECSFDFPCELEYSPPLHDLRNQSWSWRRIPSEEASQMDLLDGPGAERSKEMPRGSFLLLNTSADSKHTILSPWMRSSSEHCTLAVSVHRHLQPSGRYIAQLLPHNEAAREILLMPTPGKHGWTVLQGRIGRPDNPFRVALEYISSGNRSLSAVDFFALKNCSEGTSPGSKMALQSSFTCWNGTVLQLGQACDFHQDCAQGEDESQMCRKLPVGFYCNFEDGFCGWTQGTLSPHTPQWQVRTLKDARFQDHQDHALLLSTTDVPASESATVTSATFPAPIKSSPCELRMSWLIRGVLRGNVSLVLVENKTGKEQGRMVWHVAAYEGLSLWQWMVLPLLDVSDRFWLQMVAWWGQGSRAIVAFDNISISLDCYLTISGEDKILQNTAPKSRNLFERNPNKELKPGENSPRQTPIFDPTVHWLFTTCGASGPHGPTQAQCNNAYQNSNLSVEVGSEGPLKGIQIWKVPATDTYSISGYGAAGGKGGKNTMMRSHGVSVLGIFNLEKDDMLYILVGQQGEDACPSTNQLIQKVCIGENNVIEEEIRVNRSVHEWAGGGGGGGGATYVFKMKDGVPVPLIIAAGGGGRAYGAKTDTFHPERLENNSSVLGLNGNSGAAGGGGGWNDNTSLLWAGKSLQEGATGGHSCPQAMKKWGWETRGGFGGGGGGCSSGGGGGGYIGGNAASNNDPEMDGEDGVSFISPLGILYTPALKVMEGHGEVNIKHYLNCSHCEVDECHMDPESHKVICFCDHGTVLAEDGVSCIVSPTPEPHLPLSLILSGS[no letters for human IgG1 Fc with changes]
